# Laboratory results: article PMC4336329 (PLoS ONE, 2015)
# Among all 310,000 compounds or so, about 14,000 (4.5%) showed an effect of 50% or more. The effect is printed as a negative number. This is one part of the list.
# Molecular target: human ether-à-go-go-related gene (hERG) potassium channel (human, UniProt Q12809)
# Test: primary screen, population patch clamp on CHO cells stably expressing hERG
# 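Note: peak tail current of the secondary pulse compared with the same well before compound.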
# human ether-à-go-go-related gene (hERG) potassium channel, sequence (Q12809 whole entry, looked up): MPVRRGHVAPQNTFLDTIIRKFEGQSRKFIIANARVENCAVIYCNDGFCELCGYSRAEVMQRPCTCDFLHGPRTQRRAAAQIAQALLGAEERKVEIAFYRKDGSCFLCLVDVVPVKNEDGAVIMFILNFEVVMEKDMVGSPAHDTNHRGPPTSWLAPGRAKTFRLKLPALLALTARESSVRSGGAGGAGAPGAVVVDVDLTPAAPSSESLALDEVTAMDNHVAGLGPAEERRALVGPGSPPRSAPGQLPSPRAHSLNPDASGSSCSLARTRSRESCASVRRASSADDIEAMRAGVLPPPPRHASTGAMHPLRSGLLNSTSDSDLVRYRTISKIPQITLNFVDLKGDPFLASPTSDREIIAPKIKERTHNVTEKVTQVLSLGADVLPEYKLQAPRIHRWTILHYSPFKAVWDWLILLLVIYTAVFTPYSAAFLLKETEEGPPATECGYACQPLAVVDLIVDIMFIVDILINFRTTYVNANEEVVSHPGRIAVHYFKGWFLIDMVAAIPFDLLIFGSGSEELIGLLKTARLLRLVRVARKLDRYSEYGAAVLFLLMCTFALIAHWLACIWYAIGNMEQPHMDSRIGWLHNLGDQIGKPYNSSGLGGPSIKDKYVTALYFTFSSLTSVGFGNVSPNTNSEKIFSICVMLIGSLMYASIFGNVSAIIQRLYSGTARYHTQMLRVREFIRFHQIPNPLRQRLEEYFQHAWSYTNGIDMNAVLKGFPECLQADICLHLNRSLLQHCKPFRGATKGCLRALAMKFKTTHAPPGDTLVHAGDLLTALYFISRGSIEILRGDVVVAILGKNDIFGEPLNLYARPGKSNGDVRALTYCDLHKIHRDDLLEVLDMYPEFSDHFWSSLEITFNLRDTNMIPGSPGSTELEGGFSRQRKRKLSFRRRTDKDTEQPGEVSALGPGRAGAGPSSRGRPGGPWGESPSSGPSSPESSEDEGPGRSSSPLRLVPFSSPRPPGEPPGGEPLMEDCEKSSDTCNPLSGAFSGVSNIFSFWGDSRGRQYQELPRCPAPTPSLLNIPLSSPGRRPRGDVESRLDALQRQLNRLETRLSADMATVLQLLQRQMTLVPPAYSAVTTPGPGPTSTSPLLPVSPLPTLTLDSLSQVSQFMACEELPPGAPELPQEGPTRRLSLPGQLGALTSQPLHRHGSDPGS
row,SMILES,"hERG current change (%, negative = inhibition) at 10uM [%]"
1,Cc1cccc(NC(=O)c2cc3n(n2)C(C(F)(F)F)CC(c2ccc4c(c2)OCO4)N3)c1 (centres unmarked),0.0954
2,O=C(Nc1n[nH]c(=S)s1)c1ccc2ccccc2c1,27.1
3,Cc1onc(-c2ccccc2)c1C(=O)Nc1ccc(OC(C)C)cc1,-18.5
4,COc1ccc(S(=O)(=O)CCc2nnc(NC(=O)c3cccs3)s2)cc1,8.55
5,COc1cccc(C(=O)OCC(=O)Nc2ccccc2N2CCOCC2)c1,-25
6,CSc1nc2ccccc2cc1/C=C(\C#N)c1cccc(C)c1,20.4
7,Cc1c(C)c2ccc(OCC(=O)NCc3ccccn3)cc2oc1=O,4.07
8,COc1ccc(C(=O)NCC(=O)OCC(=O)Nc2cc(OC)ccc2OC)cc1,-1.67
9,O=C(NC(NC1CCS(=O)(=O)C1)C(Cl)(Cl)Cl)c1ccc(Br)cc1 (centres unmarked),-21.3
10,COc1ccc(-c2cn[nH]c2C)cc1,13
11,O=C(N/N=C/C(c1ccccc1)c1ccccc1)c1ccccc1F,18.9
12,O=C(CCn1c(=O)c2ccccc2n(CC(=O)NC2CCCC2)c1=O)NCCc1ccc(Cl)cc1,9.26
13,CCC(=O)NC(=S)Nc1ccc(NC(=O)c2ccc(OC)cc2)cc1,7.69
14,CCC(=O)NCCc1nc2ccccc2n1CC(=O)c1ccccc1,3.8
15,Cc1ccccc1-n1c(CNc2ccccc2)nc2ccccc2c1=O,11.7
16,O=C(CCCC(=O)N1CCN(c2ccc([N+](=O)[O-])cc2)CC1)c1ccccc1,-72
17,CC(C)(C)c1ccc(COC(=O)CN2C(=O)NC3(CCCC3)C2=O)cc1,-29.9
18,O=C(c1ccc2oc(CCc3ccccc3)nc2c1)N1CCC(O)CC1,14.9
19,CN(C)S(=O)(=O)c1ccc(C(=O)NC2CCCc3ccccc32)cc1 (centres unmarked),3.09
20,COc1ccc(CCNC(=O)C(C)n2nc(C)c3c(C)n(-c4ccc(C)cc4)nc3c2=O)c(OC)c1 (centres unmarked),-58.6
21,COc1ccc(/C=N/NC(=O)Nc2cccc3nsnc23)c(OC)c1,6.08
22,CC(C)(C)NC(=O)c1cc(NC(=O)c2ccco2)cc(NC(=O)c2ccco2)c1,-25.6
23,CC(=O)Nc1ccc(S(=O)(=O)N(C#N)c2nc(C)cc(C)n2)cc1,16.6

row,SMILES,"hERG current change (%, negative = inhibition) at 10uM [%]"
1,CC(C)n1cc(CN2CCC(n3nccc3NC(=O)C3CCCC3)CC2)cn1,-1.92
2,COC(=O)c1cccc(NC(=O)Nc2ccccc2OC)c1,-5.2
3,CC(C)=CCN1CCNC(=O)C1CC(=O)NCc1nc(C)c(C)s1 (centres unmarked),11.2
4,O=C(Nc1nnc(CCc2ccccc2)s1)c1ccccc1F,15.1
5,Cc1cccn2c(=O)c(C(=O)NC3CCCCC3C)c(O)nc12 (centres unmarked),-16.8
6,CCCNC(=O)CSc1nc2ccccc2c(=O)n1CCC,3.3
7,CCC(=O)N1CCc2cc(S(=O)(=O)NCCN3CCC(C)CC3)ccc21,-3.47
8,Cc1ccc2oc(C(=O)NCCC3CCCCO3)c(C)c2c1 (centres unmarked),-11.5
9,CCCCn1c(-c2nn(C)c(C)c2Cl)n[nH]c1=S,2.17
10,CC(C)(C)CC(=O)Nc1ccccc1N1CCN(c2ccc(F)cc2)CC1,14.7
11,N#C/C(=C(/O)COC(=O)CCCNC(=O)c1ccc(Cl)cc1)c1nc2ccccc2[nH]1,8.97
12,COc1cc(-c2nc(-c3ccc(Br)o3)no2)cc(OC)c1OC,16.7
13,CCOC(=O)C[C@H]1c2ccc(C(F)(F)F)cc2S(=O)(=O)N1c1cccc(OC)c1,-30.8
14,CCCCc1c(C)nc(Nc2ccc(OC)cc2)[nH]c1=O,1.33
15,Cc1cc(C(F)(F)F)nn1CC(=O)NCc1cccs1,19.1
16,CCc1cccc(NC(=O)COC(=O)/C=C/c2cccs2)c1,-9.41
17,COc1ccc(OC)c(N2CC(O)=C(c3nc4ccccc4s3)C2=N)c1,-21.3
18,Cc1nnc(NC(=O)c2ccc(Br)cc2)s1,6.01
19,COc1cc(N=C(N)N=C(N)N)cc(OC)c1,33.9
20,Cc1ccc2c(N)[nH]nc2n1,13
21,O=C(CNC(=O)c1cccs1)N/N=C/c1ccco1,22.4
22,Cc1ccc2c(c1)N(CC(=O)NC(C)CCc1ccccc1)C(=O)c1cccnc1O2 (centres unmarked),-36
23,CCOc1ccc(-n2c(Cc3cc(=O)[nH]c(=O)[nH]3)nnc2SCC(=O)OC)cc1,0.603

row,SMILES,"hERG current change (%, negative = inhibition) at 10uM [%]"
1,O=S(=O)(Nc1ccc(N2CCOCC2)cc1)c1ccc(Cl)s1,-9.13
2,NS(=O)(=O)c1ccc(NC(=O)/C=C/c2ccccc2[N+](=O)[O-])cc1,15.9
3,CC(=O)c1cccc(Nc2nc(-c3ccccc3)nc3ccccc23)c1.Cl,26.9
4,c1ccc2c(c1)nc(N1CCOCC1)c1ccccc12,11.2
5,CC(C)OCC(O)Cn1c(N2CCCC2)nc2c1c(=O)[nH]c(=O)n2C (centres unmarked),2.06
6,CCN(C(=O)CSc1nnc(C)n1-c1cccc(C)c1)C1CCS(=O)(=O)C1 (centres unmarked),5.87
7,CC(C)COc1ccc(S(=O)(=O)NNC(=O)c2cc3ccccc3o2)cc1,-8.79
8,COc1ccc(NC(=O)c2ccc(N3C(=O)C4CC=C(Cl)CC4C3=O)cc2)cc1 (centres unmarked),16.3
9,Cc1ccc(Oc2nnc(-c3cccs3)c3ccccc23)cc1,-0.00742
10,COc1ccccc1NC(=O)Nc1ccnn1C1CCN(C(=O)c2cscn2)CC1,4.82
11,CCc1ccc(NC(=O)C(CC)c2ccccc2)cc1 (centres unmarked),11.5
12,Oc1ccccc1C1CC(c2cccs2)=NC(c2cccc(Br)c2)N1 (centres unmarked),13.3
13,Cc1cc(NC(=O)CSc2nnc(-c3cccnc3)n2C2CCCCC2C)no1 (centres unmarked),3.83
14,COc1cc(NC(C)=O)c2ncccc2c1NC(C)=O,17.8
15,COc1ccc(OCC(=O)Nc2ccc(S(=O)(=O)N3CCCCC3)cc2)cc1,-20.2
16,Cc1cc(C)n(-c2ccc(C(=O)N3CCN(c4ccccn4)CC3)cc2)n1,-32.5
17,N#C/C(=C\c1ccc(N2CCOCC2)o1)C(=O)N1CCOCC1,-1.67
18,Cc1cc(NC(=O)CCN2CCCCC2)ccc1Br,-72.8
19,CC1CCCCC1NC(=O)C1CCN(C(=O)c2sccc2-n2cccc2)CC1 (centres unmarked),-21
20,O=C(N/N=C/c1c[nH]c2ccccc12)c1sc2ccccc2c1Cl,14.3
21,Cc1ccc(Cl)c2c1NC(=O)C2(O)CC(=O)c1ccccc1O (centres unmarked),5.71
22,CCN(C(=O)COC(=O)c1c(C)c(-c2ccccc2)nc2ccccc12)C1CCS(=O)(=O)C1 (centres unmarked),-24.9
23,CCc1ccc(CCC(=O)Nc2nnc(CC)s2)o1,-0.629

row,SMILES,"hERG current change (%, negative = inhibition) at 10uM [%]"
1,COC(=O)c1ccc(C(C(=O)NC2CCCCC2)N(Cc2ccc(F)cc2)C(=O)Cc2cccs2)cc1 (centres unmarked),-9.24
2,CN(C)c1ccc(/C=N/NC(=S)NCc2ccccc2)cc1,15.3
3,COC(=O)c1ccc(NC(c2ccc(Cl)cc2)P(=O)(OC)OC)cc1 (centres unmarked),-0.00382
4,CN1C(C(=O)Nc2ccc(F)cc2F)=CC(c2cccs2)=NS1(=O)=O,-1.33
5,Cc1ccc(S(=O)(=O)NCC(=O)N(CC(=O)NCC2CCCO2)Cc2ccccc2)cc1 (centres unmarked),-5.67
6,O=C(NCCNC(=O)c1ccc(Cl)cc1Cl)c1ccccn1,20.2
7,O=C(O)c1ccc(-c2nnn(Cc3cccc(C(F)(F)F)c3)n2)cc1,-12.3
8,COc1ccccc1CNC(=O)C1CCN(S(=O)(=O)c2c(C)noc2C)CC1,2.86
9,COc1ccccc1C(=O)NCC(=O)N/N=C/c1ccncc1,-2.66
10,CC(=O)c1cccc(OCC(=O)N2CCN(c3ccc(C(F)(F)F)cn3)CC2)c1,-16.3
11,CCN(CC)CCCOC(=O)C(OC)(c1ccccc1)c1ccccc1.Cl,-27.9
12,COc1cccc(CNS(=O)(=O)c2c(C)[nH]c(C)c2C(=O)N2CCCC2)c1,-5.06
13,Cc1nc2ccc(S(=O)(=O)NC(C(=O)N3CCCCCC3)C(C)C)cc2s1 (centres unmarked),-12.4
14,O=C(COC(=O)Cc1cccs1)Nc1ccc(F)c(F)c1F,18
15,CS(=O)(=O)c1ccc(N2CCOCC2)c(S(C)(=O)=O)c1,-5.39
16,CCOc1ccc2ccccc2c1/C=N/n1cncn1,-18.6
17,CCCc1nc2ccc(NC(=O)NCCC(=O)OCC)cc2c(=O)n1Cc1ccc(Cl)cc1,10.9
18,COc1ccc(C(=O)NCCn2cc(SCC(=O)NCC3CCCO3)c3ccccc32)cc1 (centres unmarked),-20.3
19,CCCN1CCN(CCCNC(=S)Nc2ccc3nc(N4CCN(CC)CC4)cc(C)c3c2)CC1,7.49
20,Cc1ccc(C(=O)n2nnc3ccccc32)cc1[N+](=O)[O-],8.94
